Experimental findings from the supplement of paper PMC7826260 are described below.

Some of the results follow. The data describe in vitro nicking of single-stranded DNA by Rep domains (3 µM enzyme, 1 h, 37 °C); shown is the middle of each 90-letter strand. The score is log2 (uncut reads / reads without enzyme); the lower, the more was cut; hits are not called. Counts are relative to all reads, so uncut sequences can rise above 0 when many others are cut.

The test system of this assay is T1, Rep nickase domain of tomato golden mosaic virus.
T1 sequence (residues 1-124 of Rep, tag left off): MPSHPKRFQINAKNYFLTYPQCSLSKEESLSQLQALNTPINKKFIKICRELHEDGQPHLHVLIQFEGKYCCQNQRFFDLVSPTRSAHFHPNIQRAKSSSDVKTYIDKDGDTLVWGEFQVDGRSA
The experiment in a line: uncleaved DNA left, log2 of reads against the no-enzyme library (log2 ratio); higher = less cleavage (more negative = more Rep cleavage of the k-mer); sequences stand for … in CTCGTCCG…ACCGGAGA
As for the experimental part:
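A pool of 90-nt single-stranded DNAs with seven random bases just before the constant AC of the nick site (name = the seven bases) was cut by 3 µM recombinant His6-SUMO-tagged Rep nickase domain (300 nM DNA, 50 mM HEPES pH 8.0, 50 mM NaCl, 1 mM MnCl2, 1 h, 37 °C, three replicates). Uncut DNA was amplified and sequenced.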
Take CAGTGTT: the “uncleaved DNA left (log2)” value is -0.463.

As to GTAGTCC, the “uncleaved DNA left (log2)” value amounted to 0.0636.

Regarding TTGCTCA, the “uncleaved DNA left (log2)” value is -0.0356.

On to GTATACA, for which the “uncleaved DNA left (log2)” value is 0.157.

As to CGTACAC, the “uncleaved DNA left (log2)” value came out at 0.0509.

Take TTGGGCT: the “uncleaved DNA left (log2)” value was determined as 0.0407.

With CTCCCCC, the “uncleaved DNA left (log2)” value is -0.121.

As to ATCGTCA, the “uncleaved DNA left (log2)” value was determined as 0.0353.

As to CCGATGG, the “uncleaved DNA left (log2)” value is -0.0252.

Take CTCCGGA: the “uncleaved DNA left (log2)” value was found to be 0.0156.

On to ATCCTAG, for which the “uncleaved DNA left (log2)” value was -0.061.

For the sequence CACTCGC, the “uncleaved DNA left (log2)” value was -0.115.

ACGAGTC: the “uncleaved DNA left (log2)” value is -0.0421.

As for GTGAGGT, the “uncleaved DNA left (log2)” value is -0.016.

As to GTGTTAG, the “uncleaved DNA left (log2)” value came out at 0.11.

On to GTGACCA, for which the “uncleaved DNA left (log2)” value was found to be 0.0143.

TGTCTGG: the “uncleaved DNA left (log2)” value stood at 0.0498.

In the case of AGTTCTG, the “uncleaved DNA left (log2)” value was 0.0378.

Regarding GAGTTCA, the “uncleaved DNA left (log2)” value was 0.136.

With TTAGTCC, the “uncleaved DNA left (log2)” value worked out at 0.0435.

Consider GGTACGA, for which the “uncleaved DNA left (log2)” value was determined as 0.0683.

Consider AGGCTCA, for which the “uncleaved DNA left (log2)” value was -0.0156.

On to GAGGCTT, for which the “uncleaved DNA left (log2)” value was determined as 0.0299.

Consider TCAGGGC, for which the “uncleaved DNA left (log2)” value was 0.00587.

On to GTCGCCT, for which the “uncleaved DNA left (log2)” value is 0.0448.

As to AATGAAG, the “uncleaved DNA left (log2)” value was 0.0359.

Turning to ATAGAAT, the “uncleaved DNA left (log2)” value is 0.121.

Regarding TTTCCTT, the “uncleaved DNA left (log2)” value was -0.123.

In the case of TAAGGCA, the “uncleaved DNA left (log2)” value was determined as 0.0364.

As to GCCATGG, the “uncleaved DNA left (log2)” value is 0.0359.

Regarding TAGGGGT, the “uncleaved DNA left (log2)” value turned out to be 0.0904.

On to AATTCAA, for which the “uncleaved DNA left (log2)” value was determined as 0.109.

Consider AGATCGC, for which the “uncleaved DNA left (log2)” value is -0.142.

As to CGAGAAA, the “uncleaved DNA left (log2)” value worked out at 0.2.

As to CAACTAG, the “uncleaved DNA left (log2)” value was -0.0869.

On to GGTCGAC, for which the “uncleaved DNA left (log2)” value was found to be 0.0296.

As for AGCATCG, the “uncleaved DNA left (log2)” value was found to be 0.0819.

For the sequence CGGAAAT, the “uncleaved DNA left (log2)” value is -0.011.

AGAATTC: the “uncleaved DNA left (log2)” value was 0.0326.

Regarding GATGGAC, the “uncleaved DNA left (log2)” value came to 0.0892.
